From paper PMC5111114
Results are given in words; binding and its absence hold for the method and conditions named. In cells and extracts the contact can be indirect. Some binding calls cover weakened binding; strength is not graded here.

Chains of the proteins cited; added tags and fusions are not shown. Lines headed by an entry give the natural chain unless they say otherwise; changes in a name come on top.
UniProt P12956: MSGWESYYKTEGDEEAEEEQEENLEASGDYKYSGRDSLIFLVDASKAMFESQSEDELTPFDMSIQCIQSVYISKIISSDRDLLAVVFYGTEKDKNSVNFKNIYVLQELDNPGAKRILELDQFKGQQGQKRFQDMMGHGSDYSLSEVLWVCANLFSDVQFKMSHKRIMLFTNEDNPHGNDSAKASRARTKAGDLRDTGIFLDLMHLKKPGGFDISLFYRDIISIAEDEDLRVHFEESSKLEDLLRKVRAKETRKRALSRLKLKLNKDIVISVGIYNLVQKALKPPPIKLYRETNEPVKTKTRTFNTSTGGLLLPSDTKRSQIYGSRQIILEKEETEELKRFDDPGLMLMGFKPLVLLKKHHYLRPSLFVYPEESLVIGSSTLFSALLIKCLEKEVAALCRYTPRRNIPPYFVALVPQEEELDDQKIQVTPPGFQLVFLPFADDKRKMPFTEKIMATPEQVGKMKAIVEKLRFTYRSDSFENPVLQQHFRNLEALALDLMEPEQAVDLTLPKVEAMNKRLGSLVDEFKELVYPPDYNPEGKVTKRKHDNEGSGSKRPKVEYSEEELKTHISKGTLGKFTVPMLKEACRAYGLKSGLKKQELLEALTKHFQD
UniProt Q96GD4: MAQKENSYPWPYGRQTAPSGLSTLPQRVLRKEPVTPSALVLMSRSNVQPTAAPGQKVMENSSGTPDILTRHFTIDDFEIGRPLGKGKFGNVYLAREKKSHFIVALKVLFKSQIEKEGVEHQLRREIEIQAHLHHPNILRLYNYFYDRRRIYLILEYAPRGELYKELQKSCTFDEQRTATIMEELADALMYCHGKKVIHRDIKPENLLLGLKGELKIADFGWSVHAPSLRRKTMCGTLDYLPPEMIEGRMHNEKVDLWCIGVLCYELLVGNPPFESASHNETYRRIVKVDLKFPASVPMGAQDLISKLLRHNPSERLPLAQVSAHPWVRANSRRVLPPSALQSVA
UniProt O70126: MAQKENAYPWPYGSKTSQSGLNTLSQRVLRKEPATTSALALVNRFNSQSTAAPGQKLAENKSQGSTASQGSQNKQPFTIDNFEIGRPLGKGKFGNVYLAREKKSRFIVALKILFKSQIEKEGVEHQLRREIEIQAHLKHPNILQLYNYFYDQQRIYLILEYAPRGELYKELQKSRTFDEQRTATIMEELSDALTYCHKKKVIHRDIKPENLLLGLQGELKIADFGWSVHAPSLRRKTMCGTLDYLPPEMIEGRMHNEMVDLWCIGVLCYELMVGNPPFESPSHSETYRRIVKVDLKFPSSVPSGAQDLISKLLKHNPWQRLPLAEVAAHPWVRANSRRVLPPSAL

Columns and labels:
[1] = biological target: Ku70 (endogenous, Hela cells) (human (endogenous in Hela)) (UniProt P12956); test: co-IP; cells (MEFs, Hela) treated with IR (40 Gy), extracts prepared after 30 min; immunoprecipitation with a Ku70 antibody; western blot for Ku70 and Aurora B
[2] = biological target: Ku70 (endogenous, Hela cells) (human (endogenous in Hela)) (UniProt P12956); test: co-IP; cells not irradiated (MEFs, Hela); extracts adjusted to 0.15% NP-40 and 100 mM KCl, 4 °C, Ku70 antibody (N3H10), Protein G magnetic beads; western blot for Ku70 and Aurora B
[3] = biological target: Ku70 S155A expressed in Ku70-/- MEFs (UniProt P12956); test: proximity ligation; in situ PLA (Duolink) in fixed, untreated MEFs with antibodies to Ku70 and Aurora B; signal relative to Ku70 KO cells
[4] = biological target: Ku70 S155D (full length) expressed in Ku70-/- MEFs (UniProt P12956); test: as above
[5] = biological target: Ku70 WT re-expressed in Ku70-/- MEFs (UniProt P12956); test: co-IP; cells (MEFs, Hela) treated with IR (40 Gy), extracts prepared after 30 min; immunoprecipitation with a Ku70 antibody; western blot for Ku70 and Aurora B
[6] = biological target: Ku70 S155A expressed in Ku70-/- MEFs (UniProt P12956); test: proximity ligation; in situ PLA (Duolink) in MEFs treated with 10 Gy of IR and fixed after 30 min, antibodies to Ku70 and Aurora B; signal relative to Ku70 KO cells
[7] = biological target: Ku70 WT re-expressed in Ku70-/- MEFs (UniProt P12956); test: as above
[8] = biological target: Ku70 S155D (full length) expressed in Ku70-/- MEFs (UniProt P12956); test: co-IP; cells not irradiated (MEFs, Hela); extracts adjusted to 0.15% NP-40 and 100 mM KCl, 4 °C, Ku70 antibody (N3H10), Protein G magnetic beads; western blot for Ku70 and Aurora B
[9] = biological target: Ku70 WT re-expressed in Ku70-/- MEFs (UniProt P12956); test: as above
[10] = biological target: biotin-conjugated Ku70 S155D peptide (loop region surrounding S155, aa 145 to 163) (UniProt P12956); test: pull-down; biotin-streptavidin pull-down with biotin-conjugated Ku70 S155A or S155D peptides and untreated WT Ku70 MEF extracts; western blot for Aurora B; only the target purified
[11] = biological target: Ku70 WT re-expressed in Ku70-/- MEFs (UniProt P12956); test: co-IP; cells not irradiated (MEFs, Hela); extracts adjusted to 0.15% NP-40 and 100 mM KCl, 4 °C, Ku70 antibody (N3H10), Protein G magnetic beads; western blot for Ku70 and Aurora B; remark: listed apart in the source
[12] = biological target: Ku70 WT re-expressed in Ku70-/- MEFs (UniProt P12956); test: condition: only cells not irradiated (no DNA damage); proximity ligation; in situ PLA (Duolink) in fixed, untreated MEFs with antibodies to Ku70 and Aurora B; signal relative to Ku70 KO cells

Aurora B (endogenous, Hela cells) (from UniProt Q96GD4 1-344) (enzyme)
binding [1]: binds | binding [2]: no binding (condition: cells not irradiated (no IR))

Aurora B (endogenous, mouse embryonic fibroblasts) (from UniProt O70126 1-345) (enzyme)
binding [3]: no binding | binding [4]: binds | binding [5]: binds | binding [6]: no binding | binding [7]: binds | binding [8]: binds | binding [9]: binds weakly | binding [10]: binds | binding [11]: no binding (condition: cells not irradiated (no IR)) | binding [12]: no binding
